Among all 310,000 compounds or so, about 14,000 (4.5%) showed an effect of 50% or more. Effects have a minus sign here. Some of the results follow.
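Also: peak tail current of the secondary pulse compared with the same well before compound.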

The target in this experiment is human ether-à-go-go-related gene (hERG) potassium channel (human, UniProt Q12809). Briefly: primary screen, population patch clamp on CHO cells stably expressing hERG.
Chain of human ether-à-go-go-related gene (hERG) potassium channel (Q12809 whole entry, looked up): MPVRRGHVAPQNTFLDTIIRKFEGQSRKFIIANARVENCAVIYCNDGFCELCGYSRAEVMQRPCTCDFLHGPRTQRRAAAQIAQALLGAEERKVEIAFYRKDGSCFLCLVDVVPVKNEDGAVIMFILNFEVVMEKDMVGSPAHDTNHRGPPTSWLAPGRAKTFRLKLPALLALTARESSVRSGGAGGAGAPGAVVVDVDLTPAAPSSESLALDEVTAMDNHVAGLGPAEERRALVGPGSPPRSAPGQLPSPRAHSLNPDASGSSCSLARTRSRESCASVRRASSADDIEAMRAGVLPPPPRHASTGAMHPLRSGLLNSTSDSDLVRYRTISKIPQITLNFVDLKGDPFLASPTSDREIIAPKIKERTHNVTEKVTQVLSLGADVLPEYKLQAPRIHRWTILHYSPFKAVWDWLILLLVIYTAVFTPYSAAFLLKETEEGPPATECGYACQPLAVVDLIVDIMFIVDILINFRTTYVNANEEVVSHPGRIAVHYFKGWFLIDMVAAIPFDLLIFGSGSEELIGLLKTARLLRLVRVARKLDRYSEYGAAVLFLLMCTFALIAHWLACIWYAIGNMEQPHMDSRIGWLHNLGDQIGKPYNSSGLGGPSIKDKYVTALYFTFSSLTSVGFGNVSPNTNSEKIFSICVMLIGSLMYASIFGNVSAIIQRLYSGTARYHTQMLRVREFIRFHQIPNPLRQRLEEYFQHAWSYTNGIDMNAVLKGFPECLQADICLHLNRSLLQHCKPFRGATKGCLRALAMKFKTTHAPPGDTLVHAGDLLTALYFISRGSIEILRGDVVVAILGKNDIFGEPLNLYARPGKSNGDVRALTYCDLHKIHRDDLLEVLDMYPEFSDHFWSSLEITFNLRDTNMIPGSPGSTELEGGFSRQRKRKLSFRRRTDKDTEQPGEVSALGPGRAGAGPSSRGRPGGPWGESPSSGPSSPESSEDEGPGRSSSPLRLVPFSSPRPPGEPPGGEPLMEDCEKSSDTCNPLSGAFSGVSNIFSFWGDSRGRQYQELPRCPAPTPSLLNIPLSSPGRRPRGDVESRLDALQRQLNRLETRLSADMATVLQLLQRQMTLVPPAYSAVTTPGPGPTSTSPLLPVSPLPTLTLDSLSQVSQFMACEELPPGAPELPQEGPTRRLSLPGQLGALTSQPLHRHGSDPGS
Consider `Cc1cc(C(=O)NC2CCCN(Cc3ccccc3F)C2)n[nH]1` (stereo not shown), for which the “hERG current change (%, negative = inhibition) at 10uM” value is given as 19.6%.

For `CCOC(=O)c1[nH]c(CSc2nnc(-c3ccc(OC)cc3)o2)c(C(=O)OCC)c1C`, the “hERG current change (%, negative = inhibition) at 10uM” value was found to be 5.46%.

Take `C/C(=N\NS(=O)(=O)c1ccc(C(C)(C)C)cc1)c1ccccc1`: the “hERG current change (%, negative = inhibition) at 10uM” value was determined as 2.69%.

Regarding `Cn1ccnc1SCC(=O)Nc1ccc2c(c1)COC2=O`, the “hERG current change (%, negative = inhibition) at 10uM” value was found to be 7.8%.

As for `Cc1ccc2c(c1)C1CN(C)CCC1N2CC(=O)N(C)c1ccccc1` (stereo not shown), the “hERG current change (%, negative = inhibition) at 10uM” value was determined as 6.34%.

Take `CCOC(=O)c1ccccc1NC(=O)CSc1nnnn1C1CCCCC1`: the “hERG current change (%, negative = inhibition) at 10uM” value was -41%.

In the case of `CCn1ncc(C2=NOC(C(=O)Nc3c(C)nn(Cc4ccc(F)cc4)c3C)C2)c1C` (stereo not shown), the “hERG current change (%, negative = inhibition) at 10uM” value turned out to be 10.3%.

`O=C(Nc1ccccc1F)c1ccccc1C(=O)Nc1ccccc1F`: the “hERG current change (%, negative = inhibition) at 10uM” value is 6.6%.

On to `COc1ccc(NC(=O)N(C2CCCCC2)C(C)c2cccnc2)c(OC)c1` (stereo not shown), for which the “hERG current change (%, negative = inhibition) at 10uM” value is on record as -19.6%.

For the compound `CC1(C(=O)O)CCC(C(=O)NNC(=O)c2ccccc2O)C1(C)C` (stereo not shown), the “hERG current change (%, negative = inhibition) at 10uM” value was 12%.

In the case of `CCN(Cc1ccccc1)C(=O)CCCOc1ccccc1`, the “hERG current change (%, negative = inhibition) at 10uM” value is given as -2.67%.

Consider `COc1cccc(C(=O)NCCS(=O)(=O)NCCc2ccccc2)c1`, for which the “hERG current change (%, negative = inhibition) at 10uM” value was -23.6%.

For the compound `N#CCSc1n[nH]c2nc3c(c(=O)n12)C1(CCCC1)Cc1ccccc1-3`, the “hERG current change (%, negative = inhibition) at 10uM” value is on record as 7.88%.

As for `O=c1[nH]c2ccccc2nc1-c1cccs1`, the “hERG current change (%, negative = inhibition) at 10uM” value was found to be 1.66%.

For the compound `O=C(O)COC(=O)C1C(c2ccccc2)C(C(=O)O)C1c1ccccc1` (stereo not shown), the “hERG current change (%, negative = inhibition) at 10uM” value is on record as -1.16%.

In the case of `NC(=O)N=Nc1c(O)[nH]c2c(Br)cc(Br)cc12`, the “hERG current change (%, negative = inhibition) at 10uM” value turned out to be 8.72%.

In the case of `O=C(CSc1nc2ccc(NC(=O)c3ccccc3C(=O)O)cc2s1)Nc1ccc(F)c([N+](=O)[O-])c1`, the “hERG current change (%, negative = inhibition) at 10uM” value is on record as 13.5%.

As to `COc1ccccc1NC(=O)COc1cc(C)nc(C(C)C)n1`, the “hERG current change (%, negative = inhibition) at 10uM” value was 7.66%.

As to `COc1ccc(-n2ncc3c(NCCN4CCOCC4)ncnc32)cc1`, the “hERG current change (%, negative = inhibition) at 10uM” value is listed as -0.24%.

On to `CC(C)C[C@H](NC(=O)c1nc[nH]c1C(=O)N[C@@H](CCCCNC(=O)OC(C)(C)C)C(=O)OC(C)(C)C)C(=O)OCc1ccccc1`, for which the “hERG current change (%, negative = inhibition) at 10uM” value was determined as 6.37%.

As for `COc1cc(/C=N/NC(=O)c2cccc3ccccc23)cc(OC)c1OC`, the “hERG current change (%, negative = inhibition) at 10uM” value is on record as 16.2%.

As to `O=C(CSc1nc(-c2ccc(F)cc2)cc(C(F)(F)F)n1)NCc1ccco1`, the “hERG current change (%, negative = inhibition) at 10uM” value stood at 10.2%.

Turning to `CCC(Oc1ccccc1)C(=O)Nc1ccc(C)c(S(=O)(=O)N2CCOCC2)c1` (stereo not shown), the “hERG current change (%, negative = inhibition) at 10uM” value was -18%.

For `CCS(=O)(=O)N1CCCC(C(=O)NCc2ccc(C)cc2)C1` (stereo not shown), the “hERG current change (%, negative = inhibition) at 10uM” value came out at 4.45%.

Regarding `O=C(c1ccco1)N1CCCN(Cc2nc(-c3cccs3)no2)CC1`, the “hERG current change (%, negative = inhibition) at 10uM” value is given as -22.1%.

As to `CC(C)Oc1ccc(-c2cc(C(=O)NCCN3CCOCC3)c3ccccc3n2)cc1`, the “hERG current change (%, negative = inhibition) at 10uM” value is listed as -12.2%.

Take `O=C(CN(Cc1ccccc1)C(=O)CSc1nnc(COc2ccccc2)o1)NC1CCCC1`: the “hERG current change (%, negative = inhibition) at 10uM” value was -8.74%.

Consider `O=C(CCCC(=O)NCc1ccc(F)cc1)NCc1ccc(F)cc1`, for which the “hERG current change (%, negative = inhibition) at 10uM” value is -39%.

Regarding `CCOC(=O)c1cc(C#N)c(SCc2ccc(C#N)cc2)nc1C`, the “hERG current change (%, negative = inhibition) at 10uM” value worked out at 3.29%.

With `NS(=O)(=O)c1ccc(CCNC(=O)COC(=O)/C=C/c2ccccc2Cl)cc1`, the “hERG current change (%, negative = inhibition) at 10uM” value is listed as -6.14%.

Regarding `CN(/N=C/c1ccc2c(c1)OCO2)c1nc(N2CCOCC2)nc(N2CCOCC2)n1`, the “hERG current change (%, negative = inhibition) at 10uM” value was found to be 12.1%.

On to `COc1ccc(S(=O)(=O)NCCSCc2ccco2)cc1C`, for which the “hERG current change (%, negative = inhibition) at 10uM” value is given as -20.8%.

Regarding `COc1ccc(C(=O)O)cc1S(=O)(=O)NC(C)C12CC3CC(CC(C3)C1)C2` (stereo not shown), the “hERG current change (%, negative = inhibition) at 10uM” value is on record as 1.27%.

Regarding `O=C(NCc1ccccc1)N1CCN(c2ccccc2)CC1`, the “hERG current change (%, negative = inhibition) at 10uM” value stood at 5.69%.

Turning to `NC1=NS(=O)(=O)NC1c1cccc(F)c1` (stereo not shown), the “hERG current change (%, negative = inhibition) at 10uM” value is reported as 14.5%.

Regarding `COc1ccc(-c2cc(=O)oc3cc(OCC(=O)N(C)C4CCS(=O)(=O)C4)ccc23)cc1` (stereo not shown), the “hERG current change (%, negative = inhibition) at 10uM” value is -27.3%.

`CCOc1ccc(N(CC(=O)Nc2ccc(OC)cc2)S(=O)(=O)c2c(C)noc2C)cc1`: the “hERG current change (%, negative = inhibition) at 10uM” value turned out to be 4.62%.

For the compound `O=C(Nn1c(-c2ccccc2)nc2ccccc2c1=O)C1CCC1`, the “hERG current change (%, negative = inhibition) at 10uM” value is on record as -6.88%.

On to `O=C1NC(=O)C2(COC(c3ccncc3)OC2)S1` (stereo not shown), for which the “hERG current change (%, negative = inhibition) at 10uM” value was 12.9%.

`Cl.O=C(CC1=NC2(CCCC2)Cc2ccccc21)N1CCOCC1`: the “hERG current change (%, negative = inhibition) at 10uM” value is recorded as -15%.

As for `Cc1ccccc1Nc1ccc(S(=O)(=O)N2CCOCC2)cc1[N+](=O)[O-]`, the “hERG current change (%, negative = inhibition) at 10uM” value is -8.45%.

Consider `C[N+]1(C)C2CCC1CC(OC(=O)C(CO)c1ccccc1)C2.[I-]` (stereo not shown), for which the “hERG current change (%, negative = inhibition) at 10uM” value is given as 18.3%.

Regarding `COc1cc(OC)cc(C(=O)Nc2ccc3c(c2)CCCN3C(=O)c2cccs2)c1`, the “hERG current change (%, negative = inhibition) at 10uM” value was -2.41%.
